Measured values published in ChEMBL document CHEMBL4888484, “Replenishing the malaria drug discovery pipeline: Screening and hit evaluation of the MMV Hit Generation Library 1 (HGL1) against asexual blood stage Plasmodium falciparum ,using a nano luciferase reporter read-out” (2022).
The whole screen tested about 150,000 compounds, of which about 540 (0.36%) showed an effect of 50% or more. This is one part of the list.

test system: Plasmodium falciparum; assay: Primary screen in NF54 nanoGlo assay, in single point, at 2uM, 72h; a lower Z score goes with more inhibition; format: functional, Erythrocyte; details: timepoint 72 hour

Compound	% Inhibition [%]	Z score
CC1=C(CN2C[C@@H]3NCCO[C@H]3C2)C(C)(C)CCC1	3	-0.53
C[C@@H]1CC=CC[C@H]1C(=O)N1CC(C2CCC2)C1	-9	1.41
CCc1ccc(S(=O)(=O)N2CCC3(CC2)N=C(c2ccc(C)c(C)c2)C(=O)N3)cc1	-6	0.8
O=C(CN1CCCC1)Nc1cccc(-c2nc3ccccc3nc2O)c1	-8	1.06
COc1cccc(-c2nc(Cn3c(=O)c4c(C)cc(C)nc4n(-c4ccccc4)c3=O)c(C)o2)c1OC	-4	0.53
O=C(CC(F)(F)F)NCC(=O)c1cccc2ccccc12	-8	1.27
CC[C@H](C)NC(=O)CCc1n[nH]c(-c2ccc(OCC(C)C)cc2)nc1=O	-4	0.55
CCc1ccc(CNc2cccnc2OC(C)C)o1	-3	0.44
Cc1cccc(N2CCN(c3ccc(NS(=O)(=O)c4cccc(C)c4)cc3C(=O)O)C[C@@H]2C)c1	0	-0.02
C[C@H]1C(=O)NCCN1C(=O)OC(C)(C)C	4	-0.85
CCOC(=O)N1CC[C@H](N2CCn3nc(CNC(=O)C4CCC4)cc3C2)C1	-2	0.41
Cc1ccc(S(=O)(=O)NC2CCN(c3ccccc3C(=O)N3CCN(C4CCCCCC4)CC3)CC2)cc1	-5	0.83
COCC1(c2nc(C3CC3)nn2-c2ccccn2)CCC1	21	-2.71
O=C(c1n[nH]cc1Cl)N1CCC[C@H](c2[nH]ncc2-c2ccccc2)C1	-1	0.13
CC[C@@H](C(=O)N1CCN(c2ccc(NC(=O)CC(C)C)cc2C(=O)NCc2ccc(F)cc2)CC1)c1ccccc1	11	-1.91
N#Cc1c(N)nc2c3c(cc(-c4ccccc4)nc13)-c1ccccc1O2	17	-1.99
O=C(Cn1nnnc1CN1CCCCCC1)N1CCc2ccccc2C1	-10	1.66
C[C@]1(O)C[C@@H](Nc2nccnc2C#N)C1	-10	1.31
N#Cc1ccc(Nc2ccc3c(c2)OCCO3)nc1	-3	0.66
C[C@@H](CN1CCc2ccccc2C1)NC(=O)c1cnc2c(c1)CCCC2	-3	0.47
O=C(NCCCn1c(-c2ccncc2)nc2cccnc21)Nc1ccccc1	-31	2.69

Compound	% Inhibition [%]	Z score
CC(C)c1cc([C@@H]2CCCN2C(=O)c2cccc(F)c2)on1	-10	1.4
COCCCOC1CN(C(=O)Nc2cccc(OCc3ccc(F)cc3)c2)C1	2	-0.24
Cc1c(CN2CC[C@H](N3CCN(C)CC3)[C@H](CCC(=O)O)C2)[nH]c2ccccc12	-4	0.69
Cc1nnc(CCCOc2cccc(C(C)(C)C)c2)o1	2	-0.39
CCCCC[C@H](C)CC(=O)N(C)Cc1nnc2n1CCN(C)C2=O	2	-0.27
CCN(CCCNC(=O)CCNC(=O)c1cccc(C)c1)C(=O)OC(C)(C)C	-2	0.46
O=C(NC[C@H]1CCCO1)c1cc2n(n1)CCN(Cc1ccccc1Cl)C2=O	-9	1.34
Cc1cccc(NC(=O)C2=NCCCN2)c1C	-8	0.91
Cc1ccc(C)c(CN2CC[C@@H]3CN(S(C)(=O)=O)[C@@H]3C2)c1	-9	1.22
O=C(CCS(=O)(=O)c1ccccc1Cl)Nc1ccc(N2CCCCC2)cc1	-16	2.95
Cc1cnc(NC(=O)[C@@H](C)C(C)(F)F)o1	-23	2.65
O=C1C[C@]2(C(=O)N(Cc3ccccc3F)c3ccccc32)c2cn[nH]c2N1	-7	0.74
CC(C)(C)OC(=O)N1CCOc2c(cccc2C(=O)O)C1	-6	0.87
OCC1(C(F)(F)F)CCN(Cc2nnc3n2CCCC3)CC1	-6	0.59
Cc1nc(COC(=O)Cc2ccc(C(N)=O)cc2)oc1C	7	-1.03
O=C(c1ccccc1)N(c1c(Cl)c(Cl)c(O)c(Cl)c1Cl)S(=O)(=O)c1ccccc1	2	-0.31
C#CCCCCC(=O)N(C)C1(C(N)=O)CCCC1	-20	1.72
C=CCNC(=O)N[C@H]1CO[C@H]2[C@@H]1OC[C@@H]2Nc1nccc(-c2ccc(OC)cc2)n1	-11	1.66
COc1cccc(CNC(=O)[C@H]2CCCN(S(=O)(=O)c3c(C)[nH]c(=O)[nH]c3=O)C2)c1	-5	0.72
CS(=O)(=O)c1ccc(-c2cc(F)cc3sc(N)nc23)cc1	2	-0.31
O=C(Nc1ccc2[nH]ncc2c1)N1CC[C@@H](O)C1	-23	2.27

Compound	% Inhibition [%]	Z score
CCOC(=O)C(=O)[C@H](C#N)c1ccccc1	-8	0.92
Cn1cc(C(=O)N2Cc3ccccc3-c3ccccc32)ccc1=O	-2	0.34
O=c1cc(CN2CCC[C@@](O)(CO)C2)[nH]c2c(F)cccc12	-8	1.08
COCCNC(=O)NCCC(=O)Nc1cccc(Cl)c1C	0	-0.03
CC(C)C1CC(N2CCCC(C(C)N)C2)CCO1 (stereo unspecified)	-8	0.7
O=C(NCCc1ccc(F)cc1)C(=O)Nc1ccc(Cl)cn1	-12	1.82
NC(=O)[C@H]1CC=CC[C@@H]1NS(=O)(=O)c1cccc2nsnc12	-7	0.99
Cc1noc(C)c1CCC(=O)N1CCCN(S(=O)(=O)c2c(C)nn(C)c2C)CC1	-14	2.16
Cc1cc(N2CCN(CCOCC(C)C)CC2)n[nH]1	-5	0.6
CC(C)(CN1[C@H]2CCNC[C@@H]1CC2)N1CCOCC1	-23	2.42
NC(=O)[C@H](Cc1ccc(O)cc1)NC(=O)NC1CCCCCCC1	-2	0.32
CC(C)c1ccccc1NC1CCC2(CC1)CS(=O)(=O)C2	-5	0.97
C=CCOCC(O)CN(Cc1cccc(C)c1)C(C)CC (stereo unspecified)	-2	0.35
O=C(c1ccco1)N(C(=O)c1ccco1)c1ncnc2oc(-c3ccco3)c(-c3ccco3)c12	31	-3.56
COC[C@H]1C[C@@H](O)CN1Cc1ncoc1C1CCC1	-8	1.1
CCc1oc(C(=O)[C@H](C#N)C(=O)Nc2cc(Cl)ccc2C)cc1C	-6	1.06
c1cc(-c2nccn2Cc2noc([C@@H]3CCCO3)n2)cc(-n2cccn2)c1	-11	1
CCc1cc([C@@H]2CCCN2C(=O)Cc2ccc(F)cc2Cl)on1	13	-1.76
O=C(c1ccc2c(c1)C(=O)N(c1nc3ccccc3s1)C2=O)c1ccc2c(c1)C(=O)N(c1nc3ccccc3s1)C2=O	3	-0.33
Cc1nc2cc(C(=O)N3CC[C@H](C(F)(F)F)C3)ccc2c(=O)[nH]1	-16	1.83
Cc1nc[nH]c1CN1CCc2[nH]cnc2[C@@H]1c1ccsc1	-6	0.95

Compound	% Inhibition [%]	Z score
Cc1cc(NC(=O)c2cccc(S(C)(=O)=O)c2)sn1	-2	0.18
CCc1nc(N2CCC(CCC(=O)NCc3cccc(Cl)c3)CC2)no1	-10	1.96
Cc1cccc(CN(Cc2ccccc2)C(=O)Cn2nccc2[C@H]2CCCNC2)n1	-13	1.9
CCC(=O)N[C@@H](C)COc1ccccc1C	-14	1.86
O=C(Nc1nc(-c2ccc3c(c2)OCCO3)cs1)c1cnc2ccccc2n1	-9	1.4
CCC(C)n1nc(NC(=O)N[C@H]2CCCC[C@@H]2O)cc1C (stereo partly specified)	4	-0.33
COCCc1nc([C@H]2CCOC2)n(Cc2ccccc2Cl)n1	-14	2.34
NC(=O)c1cc2c(nc1-c1cccc3c1OCC3)CCC2	-16	1.75
COc1cccc(N2N=NC3C(=O)N(c4ccc5c(c4)CCC5)C(=O)C32)c1 (stereo unspecified)	-1	0.15
COc1ccc(NC(=O)[C@H](NC(=O)Cc2c[nH]c3ccccc23)c2ccc(C)cc2)cc1	-9	1.46
Cc1ccc(S(=O)(=O)NC[C@@H](CO)Cc2cnn(C)c2)cc1	3	-0.28
CCc1ncsc1C(=O)OCC1(C#N)CCOCC1	34	-4.54
COCCn1cnc2cc(NC(=O)C3CCCCC3)cc(C(=O)NC[C@H]3CCCN(C(C)C)C3)c21	-6	0.85
Cc1c2ccc3ccccc3c2s[n+]1CCCS(=O)(=O)[O-]	-20	3.12
O=C(Nc1ccccc1)Nc1cnc(-n2ccnc2)nc1	39	-2.77
O=C(NC[C@H]1CC12CCCCC2)c1cccc(=O)[nH]1	-8	1.32
CCc1nnc(CN(C)Cc2cnc(C)cn2)o1	-16	1.71
COc1ccc(CN2CC[C@H]2C(=O)NCc2cc(C)on2)cc1	-16	1.71
CN(C)CCNC(=O)c1coc(CN2CCC(Cc3ccccc3)CC2)n1	-2	0.16
Cc1ccc(F)cc1NC(=O)Cc1nnc(-c2ccsc2)o1	-15	1.51
